Results as given in the supplement of paper PMC4604168 (melanoma cell lines).
This is one part of the list. Repeats are few or missing, and single values can be far off.

Key:
Assay in all cases: cell count relative to DMSO control; melanoma cells; higher = more viable cells
Conditions in all cases: library dose: low library concentration; 72 h
COLO792 = test system: COLO792
COLO800 = test system: COLO800
COLO829 = test system: COLO829
G361 = test system: G361
IPC-298 = test system: IPC-298
IST-MEL1 = test system: IST-MEL1
LB2518-MEL = test system: LB2518-MEL
LOXIMVI = test system: LOXIMVI
MEL-HO = test system: MEL-HO
MZ2-MEL = test system: MZ2-MEL
MeWo = test system: MeWo
RPMI7951 = test system: RPMI7951
RVH-421 = test system: RVH-421
SkMel28 = test system: SkMel28
SkMel30 = test system: SkMel30
SkMel5 = test system: SkMel5
UACC257 = test system: UACC257
UACC62 = test system: UACC62
WM115 = test system: WM115
WM1716 = test system: WM1716
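Also: cell number obtained by counting DAPI-stained nuclei in high-throughput microscope images with image analysis software, screen run in 1,536-well plates.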

Structure (SMILES)	cell count (COLO792) [%]	cell count (COLO800) [%]	cell count (COLO829) [%]	cell count (G361) [%]	cell count (IPC-298) [%]	cell count (IST-MEL1) [%]	cell count (LB2518-MEL) [%]	cell count (LOXIMVI) [%]	cell count (MEL-HO) [%]	cell count (MZ2-MEL) [%]	cell count (MeWo) [%]	cell count (RPMI7951) [%]	cell count (RVH-421) [%]	cell count (SkMel28) [%]	cell count (SkMel30) [%]	cell count (SkMel5) [%]	cell count (UACC257) [%]	cell count (UACC62) [%]	cell count (WM115) [%]	cell count (WM1716) [%]
COc1ccc(COc2ccc(Cc3cnc(N)nc3N)cc2OC)cc1 + Cc1cc([N+](=O)[O-])ccc1NS(=O)(=O)c1cc(Cl)ccc1Cl [FH535] (first compound 1 µM, partner dose 1 µM)	87.7	124	89.6	96.2	93.7	93.5	106	103	97.5	94.8	91.8	109	99.4	80.8	89.8	86.8	89.2	89.6	86.7	96.9
O=C(O)C(=O)Nc1sc2c(c1C(=O)O)CCNC2 + O=c1cc(-c2cccc3c2Sc2ccccc2S3)oc(N2CCOCC2)c1 [KU55933] (first compound 1.66667 µM, partner dose 1 µM)	110	142	86.5	105	98.5	115	117	176	105	102	100	107	106	85.2	108	102	85.2	106	100	105
COc1ccc2c(c1)CCC1C2CCC2(C)C(NCCCCCCN3C(=O)C=CC3=O)CCC12 (stereo not given) + CC(C)CCN1c2nc(Nc3cc(F)c(O)c(F)c3)ncc2N(C)C(=O)C1C [BID1870] (first compound 0.4 µM, partner dose 0.2 µM)	93.1	121	67.4	85.6	93.6	109	86.5	216	94.1	93.9	100	84.2	94.4	98.7	101	92.6	78.8	95.1	88.5	74.1
c1cc(-c2cnn3cc(-c4ccc(OCCN5CCCCC5)cc4)cnc23)ccn1 [Dorsomorphin] + O=c1cc(-c2cccc3c2Sc2ccccc2S3)oc(N2CCOCC2)c1 [KU55933] (first compound 0.4 µM, partner dose 1 µM)	99	93.6	92.9	62.4	102	102	121	187	104	102	91	110	106	109	118	76.3	81.8	86.4	109	119
CCN(CC)CCCCNc1ncc2cc(-c3cc(OC)cc(OC)c3)c(NC(=O)NC(C)(C)C)nc2n1 + CC(C)CCN1c2nc(Nc3cc(F)c(O)c(F)c3)ncc2N(C)C(=O)C1C [BID1870] (first compound 0.1 µM, partner dose 0.2 µM)	85.6	115	113	101	96.1	109	93.1	71.9	87.3	97.8	98.6	108	129	92.4	99.7	102	68.5	102	96.6	87.3
COc1ccc2c(c1)CCC1C2CCC2(C)C(NCCCCCCN3C(=O)C=CC3=O)CCC12 (stereo not given) + Cn1cc(/C=C2\C(=O)Nc3cccnc32)c2ccccc21 [GW441756] (first compound 0.4 µM, partner dose 0.4 µM)	96	118	96.7	95.2	101	96.8	98.8	99.8	98.5	97.8	103	69.7	96.6	97.4	114	96.4	85.9	93.1	95	92.8
CCCCCCCCCCCC1=C(O)C(=O)C=C(O)C1=O [Embelin] + CC(C)CCN1c2nc(Nc3cc(F)c(O)c(F)c3)ncc2N(C)C(=O)C1C [BID1870] (first compound 1.2 µM, partner dose 0.2 µM)	95.2	95.2	108	96.6	101	108	95.8	125	99.1	100	105	118	85.9	90.3	130	124	94.2	98.8	109	110
COc1cc2ncnc(Nc3ccc(Oc4ccccc4)cc3)c2cc1OC + CCCCCCCCCCCC1=C(O)C(=O)C=C(O)C1=O [Embelin] (first compound 2 µM, partner dose 1.2 µM)	105	89.6	117	98.4	92.8	91.5	137	118	104	94.6	99.8	111	97.8	86.1	50.1	110	97.8	97	102	121
CCN(CC)CCCCNc1ncc2cc(-c3cc(OC)cc(OC)c3)c(NC(=O)NC(C)(C)C)nc2n1 + CCCCCCCCCCCC1=C(O)C(=O)C=C(O)C1=O [Embelin] (first compound 0.1 µM, partner dose 1.2 µM)	114	57	113	98.7	98	97.9	91.6	120	84.7	99.8	105	96.2	107	87.4	98.1	96.7	93.5	104	103	112
N#Cc1c(O)c2c(-c3ccc(-c4ccccc4O)cc3)csc2[nH]c1=O + COc1ccc(-c2ccc3c(N4CCOCC4)nc(N4C[C@@H](C)O[C@@H](C)C4)nc3n2)cc1CO [KU0063794] (first compound 2 µM, partner dose 0.02 µM)	97.4	101	87.1	106	97.2	100	105	121	91.4	98.6	95.7	112	89.5	97.8	74.4	98.3	85.2	99.7	98	106
CCN(CC)CCCCNc1ncc2cc(-c3cc(OC)cc(OC)c3)c(NC(=O)NC(C)(C)C)nc2n1 + COc1ccc(COc2ccc(Cc3cnc(N)nc3N)cc2OC)cc1 [GW2580] (first compound 0.1 µM, partner dose 1 µM)	95.6	97.9	99.2	110	97.4	97.1	84.3	101	104	95.6	108	105	123	91.9	121	107	113	96.4	98.7	103
COc1cc2ncnc(Nc3ccc(Oc4ccccc4)cc3)c2cc1OC + Cc1cc([N+](=O)[O-])ccc1NS(=O)(=O)c1cc(Cl)ccc1Cl [FH535] (first compound 2 µM, partner dose 1 µM)	69.8	102	97.4	82.7	81.5	86.6	118	108	101	86.7	90.5	109	105	79.5	90.3	92.7	88.8	92.2	98.8	108
O=C1NC(=O)/C(=C/c2ccc(-c3ccc(F)cc3O)o2)S1 + Cn1cc(/C=C2\C(=O)Nc3cccnc32)c2ccccc21 [GW441756] (first compound 1 µM, partner dose 0.4 µM)	95.6	140	91.9	111	94.5	112	95	81.5	93.4	95.1	106	110	90.3	84.8	101	88.1	79.2	97.9	105	105
O=C1NC(=O)/C(=C/c2ccc(-c3ccc(F)cc3O)o2)S1 + COc1cc(N2CCC(N3CCN(C)CC3)CC2)ccc1Nc1ncc(Cl)c(Nc2ccccc2S(=O)(=O)C(C)C)n1 [NVP-TAE684] (first compound 1 µM, partner dose 0.08 µM)	97.7	60	93.3	101	97.6	95.3	92.8	85.4	82.7	98.4	83	98.2	105	72.5	63.9	88.3	95.7	81	98.7	87.7
CCN(CC)CCCCNc1ncc2cc(-c3cc(OC)cc(OC)c3)c(NC(=O)NC(C)(C)C)nc2n1 + COc1cc2ncnc(Nc3ccc(Oc4ccccc4)cc3)c2cc1OC [SrcI1] (first compound 0.1 µM, partner dose 2 µM)	87.5	105	103	109	93.7	93.7	102	95.4	80.2	95.7	88.8	104	104	83.2	83.2	102	113	96.4	110	106
COc1ccc2c(c1)CCC1C2CCC2(C)C(NCCCCCCN3C(=O)C=CC3=O)CCC12 (stereo not given) + CCCCCCCCCCCC1=C(O)C(=O)C=C(O)C1=O [Embelin] (first compound 0.4 µM, partner dose 1.2 µM)	92.1	110	127	82.4	103	102	102	103	99.3	97.9	99.2	90.7	108	100	104	101	109	99.7	87.2	82.5
COc1cc2ncnc(Nc3ccc(Oc4ccccc4)cc3)c2cc1OC + Oc1cc(-c2nc(-c3ccccc3)[nH]c2-c2ccncc2)ccc1Cl [L779450] (first compound 2 µM, partner dose 0.2 µM)	102	139	100	97.8	81.1	99.9	93.3	111	112	79.5	113	108	96.6	68.9	114	96.7	96.5	71.2	83.7	136
COc1ccc(-c2ccc3c(N4CCOCC4)nc(N4C[C@@H](C)O[C@@H](C)C4)nc3n2)cc1CO + O=C1NC(=O)/C(=C/c2ccc(-c3ccc(F)cc3O)o2)S1 [AS252424] (first compound 0.02 µM, partner dose 1 µM)	99	75.7	130	93.2	90.8	91.8	92.9	61.2	83.5	87.7	91.6	89.8	116	92.6	104	95.6	69.1	102	91	90.1
